# Reference: PubChem BioAssay AID894 (National Center for Advancing Translational Sciences (NCATS), 2007)
# About 6,500 (4.3%) of roughly 150,000 compounds were called active. Inconclusive results, whose numbers are uncertain, are shown with a selection of clear calls. Calls follow the shape of the dose curve; as a rule, active = well fitted inhibition curve with a large enough effect (not every such curve was filed as active); inconclusive = small, poorly fitted or top-dose-only effect, or another doubt; inactive = no such curve, though single readings can be large or run the other way. Potencies of inconclusive entries are left out as doubtful fits.
# Target: 15-hydroxyprostaglandin dehydrogenase [NAD(+)] (Homo sapiens) (UniProt P15428)
# UniProt P15428, sequence (P15428 whole entry, looked up): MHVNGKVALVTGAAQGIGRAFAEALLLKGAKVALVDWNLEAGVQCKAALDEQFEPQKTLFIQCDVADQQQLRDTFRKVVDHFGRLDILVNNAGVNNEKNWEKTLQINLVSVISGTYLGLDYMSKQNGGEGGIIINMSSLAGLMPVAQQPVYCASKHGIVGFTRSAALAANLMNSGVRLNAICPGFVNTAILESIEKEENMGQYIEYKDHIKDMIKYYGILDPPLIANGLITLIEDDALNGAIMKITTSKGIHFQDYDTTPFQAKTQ
# Assay: qHTS Assay for Inhibitors of HPGD (15-Hydroxyprostaglandin Dehydrogenase)
# Conditions: purified HPGD, NADH fluorescence kinetic, PGE2 substrate; activity change, negative = inhibition: stronger effect = lower value
# In short: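 NADH formation kinetics: reaction with 30 uM PGE2 and 1 mM NAD+ (final), 20 nM enzyme, Tris-HCl pH 8 with Tween 20, after 15 min compound preincubation at room temperature. Fluorescence change, last versus first of five reads.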
# % is scaled to controls: 0 for no effect and ±100 for the full control effect; potency is read from the fitted curve at half-maximal effect; tags tell the direction and shape of the fitted curve.
SMILES,Potency,"activity change, negative = inhibition"
CCN1CCN(c2ccc(NC(=O)c3ccc4c(c3)[nH]c(=O)n4Cc3ccc(F)cc3)cc2)CC1,"inconclusive [inhibitor, partial curve]",–
CCOC(=O)c1cccc(-n2c(-c3ccc(OC)cc3)nc3nc4ccccc4nc32)c1,"inconclusive [inhibitor, partial curve]",–
S=C(Nc1ccccn1)c1ccccn1,active: 8.91 µM,–
CCc1c(C)[nH]c2nc3ccccc3n2c1=O,"inconclusive [inhibitor, single point]",–
CN1C(=O)c2cccc(NCCCCCCN3C(=O)c4ccccc4C3=O)c2C1=O,"inconclusive [inhibitor, partial curve]",–
Nc1c(Cl)ncnc1N/N=C/c1ccnc2ccccc12,"inconclusive [inhibitor, partial curve]",–
Oc1ccc(N2CCN(c3ncnc4sc5c(c34)CCC5)CC2)cc1,–,inactive: -18.9%
CCc1cc2c(SCC(=O)N3CC(=O)Nc4ccccc43)ncnc2s1,"inconclusive [inhibitor, single point]",–
O=C(COc1ccccc1Cl)NC(=S)N1CCc2ccccc21,active: 20 µM,–
O=C(NC(=S)NNC(=O)c1ccc(Cl)cc1Cl)c1cccnc1,"inconclusive [inhibitor, single point]",–
COc1cccc(-n2cc(C(=O)O)c3ccccc3c2=O)c1,"inconclusive [inhibitor, single point]",–
O=C(CCCCCn1c(=S)[nH]c2ccccc2c1=O)N1CCOCC1,active: 14.1 µM,–
Cn1c(N)c(C(=O)c2ccc(C#N)cc2)c(=O)n(C)c1=O,–,inactive: -6.02%
CCOC(=O)N1CCC(NC(=O)c2ccc3nc4ccccc4c(=O)n3c2)CC1,"inconclusive [inhibitor, partial curve]",–
CN(C)c1ccc(C=C2C(=O)OC(C)(C(C)(C)C)OC2=O)cc1 (configuration not stated),active: 10 µM,–
COc1ccc(OC)c(-c2nnc(SCC(=O)N3CCCc4ccccc43)o2)c1,"inconclusive [inhibitor, single point]",–
COc1cccc(C(=O)Nc2cccc(-c3nnc(-c4ccco4)o3)c2)c1,active: 20 µM,–
CCCC[n+]1ccn(-c2nc3ccccc3nc2[N-]S(=O)(=O)c2ccccc2)c1,"inconclusive [inhibitor, partial curve, poor fit]",–
CCCCNC(=O)CSc1nc2ccc(NC(=O)CSc3nnc(N)s3)cc2s1,active: 5.01 µM,–
COc1ccccc1NC(=O)CSc1nc(O)cc(=O)[nH]1,"inconclusive [inhibitor, partial curve]",–
O=C1c2ccccc2C(Nc2ccc3nc(-c4cccnc4)[nH]c3c2)N1Cc1ccco1 (configuration not stated),"inconclusive [inhibitor, partial curve]",–
COc1cc2c(cc1OC)C(c1cc3ccccc3oc1=O)=NC(C)(C)C2,"inconclusive [inhibitor, partial curve]",–
CCOC(=O)N1CCN(Cc2nc3c(c(=O)[nH]c(=O)n3C)n2Cc2ccccc2C)CC1,–,inactive: -2.88%
O=C(CCn1c(=S)[nH]c2ccccc2c1=O)NCC1CCCO1 (configuration not stated),active: 28.2 µM,–

SMILES,Potency,"activity change, negative = inhibition"
N#Cc1nc(-c2cccc(Cl)c2)oc1NCc1cccnc1,"inconclusive [inhibitor, partial curve]",–
O=S(=O)(Cc1ccc(Cl)cc1)c1ccccc1-c1nnc(-c2ccccc2)o1,"inconclusive [inhibitor, partial curve]",–
COc1cc(OC)cc(-c2nnc(Nc3nc4c(F)cccc4s3)o2)c1,"inconclusive [inhibitor, partial curve]",–
COc1ccc(-c2cc(C(F)(F)F)nc(N3CCCCC3)n2)cc1OC,"inconclusive [inhibitor, single point]",–
O=S(=O)(c1ccccc1)N1CCC2(CCCN(Cc3ccccc3)C2)CC1,–,inactive: -4.86%
COc1ccc(NC(=O)C2CCCO2)cc1 (configuration not stated),active: 25.1 µM,–
CCN(CC)S(=O)(=O)c1ccc(N=Nc2c(C)[nH]n(C(N)=S)c2=O)cc1,active: 35.5 µM,–
CCCNC(=O)c1ccc(SC)cc1OC,active: 25.1 µM,–
O=[N+]([O-])c1ccc2nc(NCCCO)nc(-c3ccccc3)c2c1,active: 14.1 µM,–
c1nc(COc2nsnc2N2CCOCC2)cs1,active: 31.6 µM,–
O=C(OCCN1CCCCC1)c1ccccc1Cl,"inconclusive [inhibitor, single point]",–
CCOC(=O)c1c(C(F)(F)F)nc2ncccn12,"inconclusive [inhibitor, single point]",–
CC(=O)Nc1ccc(C#Cc2ccc(NC(C)=O)cc2)cc1,"inconclusive [inhibitor, partial curve]",–
COc1ccc(OC)c(S(=O)(=O)Nc2ccc(O)c3ccccc23)c1,active: 3.16 µM,–
CCCc1nc(SCC(=O)N2c3ccccc3CC2C)c2c(C)c(C)sc2n1 (configuration not stated),–,inactive: -12.6%
COc1ccccc1NC(=O)c1cc2ccc(O)cc2o/c1=N\O,–,inactive: -17.3%
CCOc1c2ccc(C(=O)NC3CCCc4ccccc43)cc2nn1C (configuration not stated),"inconclusive [inhibitor, partial curve]",–
N#Cc1ccc(-n2c(-c3ccccc3)nnc2-c2ccccc2)cc1C#N,"inconclusive [inhibitor, partial curve]",–
c1ccc(-c2noc(-c3cccc4ccccc34)n2)nc1,"inconclusive [inhibitor, partial curve]",–
N=C1Sc2ccccc2C2=NCCCN12,active: 2.24 µM,–
CCOC(=O)c1nc2sc(C)c(C)c2c(=O)[nH]1,"inconclusive [inhibitor, partial curve]",–
O=C(Nc1nc2ccccc2n1CCN1CCCCC1)c1ccc(Cl)cc1,"inconclusive [inhibitor, single point]",–
N#C/C(=C\c1ccccc1)c1n[nH]c(Cn2cncn2)n1,active: 28.2 µM,–
